Values joined by “and” are separate entries in the source; they are usually repeats but may differ in a detail not shown here. Identical values can stand only once. The whole screen tested about 150,000 compounds, of which about 540 (0.36%) showed an effect of 50% or more. Some of the results follow.
System: Plasmodium falciparum
Assay: Primary screen in NF54 nanoGlo assay, in single point, at 2uM, 72h; a lower Z score goes with more inhibition
Assay type: functional, Erythrocyte
Settings: timepoint 72 hour

Compound | % Inhibition [%] | Z score | % Inhibition (2 µM) | Z score (2 µM)
Cc1nc(N)nc(N(C)CCc2ccncc2)c1CCC(=O)O | 5 | -0.92 | – | –
O=C1CCC2(CCN(C(=O)c3cccnc3)CC2)CN1CCc1ccncc1 | 3 | -0.36 | – | –
Cc1n[nH]c(CNC(=O)Nc2sc(C)nc2CC(C)C)n1 | -2 | 0.26 | – | –
Cc1ncccc1Oc1ncnc(N[C@H]2COC[C@@H]2O)c1C | -8 | 1.07 | – | –
CN(C)c1cc(NC(=O)CCOC2CCOCC2)ncn1 | -5 | 1.04 | – | –
COc1ccc(CCN=C(N)NS(=O)(=O)c2ccc(F)cc2)cc1OC | -4 | 0.72 | – | –
CC(C)c1nnc(CNc2ncc(Cl)cn2)n1C | 0 | -0.03 | – | –
COc1ccc(F)cc1S(=O)(=O)N1CC2(C[C@H](CC(=O)NCC3CC3)CO2)C1 | -2 | 0.34 | – | –
Cc1ccsc1CN1CC[C@@]2(CCCN(Cc3cccnc3)C2=O)C1 | -3 | 0.47 | – | –
Cc1nc2c([nH]1)CN(C[C@@H]1CCCN3CCCC[C@H]13)CC2 | 3 | -0.62 | – | –
CC(C)(O)CN1CCN(C(=O)CC[C@H]2CCCO2)CC1 | -10 | 0.86 | – | –
COCCN1CCN(c2nc(-c3cccc(F)c3)c3c(N)n(-c4ccc(F)cc4)nc3n2)CC1 | -2 | 0.37 | – | –
COc1ccc(N(C)S(=O)(=O)c2cccc3nonc23)cc1 | -6 | 0.95 | – | –
CC(CC(=O)O)(C(=O)N1CC[C@H](OC(F)F)C1)c1ccc(F)cc1 (stereo partly drawn) | 0 | -0.03 | – | –
CCOC(=O)c1coc(N2CCC(OCc3cccnc3)CC2)n1 | 0 | 0.02 | – | –
Cc1oc(-c2cc(C(F)(F)F)on2)cc1S(=O)(=O)N1CCC[C@H](c2cc[nH]n2)C1 | -6 | 0.73 | – | –
COc1ccc(CN(C)Cc2n[nH]c3c2CCC3)cn1 | -2 | 0.34 | – | –
COC(c1ccccc1F)C(C)NC(=O)Cc1ccc2cn[nH]c2c1 (stereo not drawn) | 5 | -0.89 | – | –
COc1ccc(CC(=O)NCCOCCO)cc1 | 33 | -4.21 | – | –
CC(C)C(=O)NCCNc1nc2c(c(=O)[nH]1)Cc1ccccc1OC2 | -16 | 2.13 | – | –
Cc1cc(C)c(CN(C)[C@@H](C)C(=O)N(C)C)cc1C | -4 | 0.77 | – | –

Compound | % Inhibition [%] | Z score | % Inhibition (2 µM) | Z score (2 µM)
CCOC(=O)C1(C(=O)NCc2cc(C)on2)CCCC1 | 7 | -0.84 | – | –
c1cc(CNC2CC3CCC2C3)ccn1 (stereo not drawn) | -13 | 2.45 | – | –
C[C@H](NC(=O)c1ccc2c(c1)CCCC2=O)c1cncs1 | -17 | 1.69 | – | –
Cn1cncc1CCNC(=O)C1CCC(F)(F)CC1 | -1 | 0.19 | – | –
CCn1cc(S(=O)(=O)N2CC(n3cnnc3-c3ccccc3)C2)cn1 | -6 | 0.86 | – | –
COc1cccc(C2=Nc3cccnc3N(CC(=O)Nc3ccc(C(F)(F)F)cc3)C(=O)C2)c1 | 28 | -3.2 | – | –
O=S(=O)(CC1CCCC1(F)F)NC[C@H]1CCC[C@@H]1O (stereo partly drawn) | -14 | 2.63 | – | –
O=C(O)[C@@H](c1ccccc1)n1sc2ccccc2c1=O | – | – | -5% and -8% | 0.8 and 1.51
COc1cccn(CC(=O)N2CC(OCc3ccccc3C)C2)c1=O | -1 | 0.23 | – | –
COC(=O)c1cc2ccccc2c(CN2CCCc3cc(F)ccc32)c1O | 8 | -1.41 | – | –
C[C@H]1CCc2[nH]c(=O)c(C(=O)N3CCOCC3)cc2C1 | 0 | 0.04 | – | –
CC(=O)N[C@H]1CN(c2nccc(N3CCC(O)CC3)n2)C[C@@H]1C1CC1 | -2 | 0.39 | – | –
Cc1cc(C)n(CCCNCc2c(Cl)cccc2Cl)n1 | -15 | 1.53 | – | –
O=C(Nc1cccc2cccnc12)c1cscn1 | 9 | -1.21 | – | –
C[C@H](Oc1ccc(Cl)cc1)C(=O)N1CCC(NS(=O)(=O)c2cccs2)CC1 | 2 | -0.22 | – | –
Cc1nc(-c2cc(S(=O)(=O)N3CCCCCC3)cn2C)sc1C(=O)N1CCOCC1 | -14 | 2.44 | – | –
CN(C(=O)c1ccccc1-n1cnnn1)[C@H]1CCCN(Cc2ccccc2)C1 | -1 | 0.13 | – | –
CC(C)c1cc(C(=O)N[C@@H](Cn2ccnc2)C(C)C)nc2ncnn12 | -5 | 0.96 | – | –
Cc1ccn2c(NC(=O)COc3ccccc3)c(-c3cccc(F)c3)nc2c1 | -17 | 3.3 | – | –
O=C(c1ccc(NCCn2ccnc2)cc1)N1CC[C@@H]2CCC[C@@H]21 | -6 | 1.22 | – | –
COC(=O)Nc1sc2c(c1C#N)CC[C@H](c1ccccc1)C2 | 6 | -0.98 | – | –

Compound | % Inhibition [%] | Z score | % Inhibition (2 µM) | Z score (2 µM)
CNc1cc(C(=O)N[C@H]2CC[C@@H]3CCC[C@@H]32)ccn1 | 9 | -1.2 | – | –
CCCn1ccnc1CN[C@H]1CCOC2(CCOCC2)C1 | -11 | 1.33 | – | –
Cc1c[nH]c(-c2c(-c3ccccc3)ncn2CCNc2cccnc2)n1 | -13 | 2.28 | – | –
C[C@H](Nc1ncc(C(F)(F)F)cc1Cl)c1cc(F)ccc1N1CCC(O)CC1 | -12 | 1.52 | – | –
Cc1ccc(C(=O)N2c3cc(C)ccc3[C@](C)(c3ccccc3)CC2(C)C)cc1 | -5 | 0.61 | – | –
CC1=NS(=O)(=O)c2cccnc2N1c1ccccc1F | -8 | 0.81 | – | –
O=C(CCOc1ccccc1)N(Cc1nccs1)C1CC1 | -7 | 1.16 | – | –
Cn1cc(CCC(=O)NC(c2ccccn2)[C@H]2C[C@H](O)C2)cn1 (stereo partly drawn) | -7 | 1 | – | –
CC(=O)N1CCC(CCC(=O)N2C[C@@H](C(C)C)Nc3ccccc32)CC1 | -14 | 1.6 | – | –
O=S1(=O)CCCN1Cc1coc(-c2cccc(Cl)c2)n1 | -7 | 1.4 | – | –
CN1CCn2ccnc2C12CCN(S(=O)(=O)c1ccccc1Cl)CC2 | -17 | 2.27 | – | –
c1cnc(N2CCC3CCCCC32)cn1 (stereo not drawn) | 2 | -0.23 | – | –
Cc1noc(C)c1CC(=O)NC(Cc1ccccn1)[C@H]1C[C@@H](O)C1 (stereo partly drawn) | -10 | 1.28 | – | –
CN1C(=O)[C@@H]2CCCCN2c2ccc(C(=O)NCCN3CCCC3)cc21 | 1 | -0.26 | – | –
CCN(CC)c1onc(-c2ccccc2)c1CN(CC(C)C)C(=O)c1ccc2c(c1)OCO2 | -3 | 0.5 | – | –
OC1CN(Cc2ccns2)CCN(Cc2ccns2)C1 | 3 | -0.38 | – | –
Cc1cc(=O)n([C@@H](C)C(=O)N2CCOCC2)c2ccccc12 | -7 | 0.8 | – | –
CCO[C@@]1(C)C[C@H]1NC(=O)NC(c1ccccc1)C(F)F (stereo partly drawn) | -3 | 0.46 | – | –
Cc1nc(C(=O)N[C@H](c2ccncc2)C2CC2)c(=O)[nH]c1C | 3 | -0.37 | – | –
CN(C)S(=O)(=O)N(C)CCOC(=O)c1cccc2ccccc12 | -9 | 1.8 | – | –
CCc1nccn1CCC(=O)N1C[C@@H]2CC[C@H]1CN(S(=O)(=O)N(C)C)C2 | 2 | -0.48 | – | –

Compound | % Inhibition [%] | Z score | % Inhibition (2 µM) | Z score (2 µM)
CCOc1ccc(CNC(=O)c2ccc3c(c2)nc2n3CCCC2)cc1 | -16 | 2.32 | – | –
O=C(CN(CC1CCCO1)C1CCN(CC(F)(F)F)C1)N1CCCC1 (stereo not drawn) | -14 | 1.56 | – | –
CCN1C[C@@H](CNC(=O)N(C)Cc2nc3ccccc3c(=O)[nH]2)CC1=O | 5 | -0.64 | – | –
CN1c2cccnc2CN(C(=O)Nc2ccccc2)CC[C@H]1CO | -14 | 2.09 | – | –
O=S(=O)(c1cccnc1)N1CC[C@H](c2nc(C3CC3)no2)C1 | -6 | 0.68 | – | –
Cc1ccc(-c2nc(CC(N)=O)nn2C2CCCCC2)s1 | -13 | 1.25 | – | –
CO[C@H]1[C@H](NC(=O)COc2ccccc2)c2ccccc2C12CCN(C(=O)Cc1nc(C)n[nH]1)CC2 | -11 | 1.34 | – | –
C[C@@H](COc1ccccc1)NC(=O)CCNC(=O)OCC(F)(F)F | -2 | 0.27 | – | –
COCC1(C(=O)NCCn2ccnn2)CCC1 | 1 | -0.15 | – | –
COC(=O)c1cc(S(=O)(=O)N(C)CC(=O)Nc2ccc3c(c2)OCCO3)cn1C | -4 | 0.71 | – | –
CC(=O)Nc1nc(C(=O)NCCc2ccc3c(c2)OCCO3)cs1 | 0 | 0.06 | – | –
O=C(c1ccncc1)N1CCC(F)(C(=O)NCC2CC2)CC1 | -10 | 1.32 | – | –
COc1ccccc1C1c2[nH]c3ccccc3c2C[C@H]2C(=O)N(C(C)C)CC(=O)N12 (stereo partly drawn) | -8 | 1.17 | – | –
COc1cccc(C(=O)NCC(=O)N2CCC([C@]3(C)NC(=O)NC3=O)CC2)c1 | 0 | -0.04 | – | –
c1ccc(C2OC(c3ccco3)N(c3ccccc3)C2c2ccccc2)cc1 (stereo not drawn) | -3 | 0.32 | – | –
COc1ccc(CCc2nnc(CCC(=O)N3CCC[C@H](OC)C3)o2)cc1 | 8 | -0.71 | – | –
Cc1cc(C)cc(-c2ncnc(Oc3cccc(F)c3)c2N)c1 | -4 | 0.67 | – | –
Cn1nccc1-c1ccc(CNC(=O)Cn2nnc3ccccc32)cn1 | -20 | 2.33 | – | –
COc1cccc(-c2nnnn2[C@H]2CO[C@H]3[C@@H]2OC[C@@H]3NC(=O)COc2ccccc2)c1 | 8 | -0.91 | – | –
Cc1noc([C@H]2C[C@@H](O)CN2c2nc3ccccc3n2C)n1 | -17 | 1.51 | – | –
C[C@@H](CCc1nc(CC(N)=O)nn1-c1ccc(F)cc1)N1CCOCC1 | -3 | 0.39 | – | –

From ChEMBL document CHEMBL4888484, “Replenishing the malaria drug discovery pipeline: Screening and hit evaluation of the MMV Hit Generation Library 1 (HGL1) against asexual blood stage Plasmodium falciparum ,using a nano luciferase reporter read-out” (2022)
